In ChEMBL document CHEMBL4888484, “Replenishing the malaria drug discovery pipeline: Screening and hit evaluation of the MMV Hit Generation Library 1 (HGL1) against asexual blood stage Plasmodium falciparum ,using a nano luciferase reporter read-out” (2022):
Screen size: about 150,000 compounds; about 540 (0.36%) showed an effect of 50% or more. The list shows a part of the results.

The molecules below were run on Plasmodium falciparum (assay: Primary screen in NF54 nanoGlo assay, in single point, at 2uM, 72h; a lower Z score goes with more inhibition). Conditions: timepoint 72 hour.
Assay type: functional, Erythrocyte
For CC(=O)Nc1ccc(-c2nccn2-c2cnc3ccccc3c2)cc1, the “% Inhibition” value was -8% and the Z score was 1.15. With CCN=C(NCc1sc(C)nc1C)NC[C@@H](c1ccco1)N(C)C the “% Inhibition” value was -12% and the Z score was 1.74. In the case of CCC(=O)N(CC(=O)N1CCc2sccc2[C@@H]1COc1ccc(C)cc1)CC1CC1, the “% Inhibition” value is reported as -2% and the Z score is reported as 0.18. With COc1ccc(CN[C@H]2CCC23CCOCC3)c(OC)n1 the “% Inhibition” value was -7% and the Z score was 0.87. With CCS(=O)(=O)NC(=O)[C@H]1CCN(CC(F)(F)F)C1 the “% Inhibition” value was 6% and the Z score was -1.03. Cn1cc(Cl)cc1C(=O)NCC1(O)CN(C(=O)OC(C)(C)C)C1 was tested, and the “% Inhibition” value was -13% and the Z score was 1.42. With C[C@H](NC(=O)CN1CCc2[nH]ncc2C1)c1cccs1 the “% Inhibition” value was -1% and the Z score was 0.07. With COCCN(CC(=O)NCCN1C(=O)Cc2ccccc21)C(=O)OC(C)(C)C the “% Inhibition” value was 3% and the Z score was -0.32. In the case of CCn1nccc1C(=O)N1C[C@H]2CC[C@@H](C1)N(Cc1c(C)noc1C)C2=O, the “% Inhibition” value is reported as -11% and the Z score is reported as 1.22. In the case of CC(=O)N1c2ccccc2C2(O)CC3C(=O)NC(CC(C)C)C(=O)N3C12 (stereo unspecified), the “% Inhibition” value is reported as 30% and the Z score is reported as -3.4. O=C(NCCCOCC1CCOCC1)C1(C2CC2)CCOCC1 was tested, and the “% Inhibition” value was -8% and the Z score was 1.01. For C[C@]1(O)CCN(c2ncccc2C#N)C[C@H]1Cc1ccccc1, the “% Inhibition” value was -1% and the Z score was 0.09. With O=C1[C@H](c2cn(Cc3ccccc3)c3ccccc23)CC(c2ccccc2)=NN1Cc1ccccc1 the “% Inhibition” value was -4% and the Z score was 0.79. In the case of CC(C)c1cc(N[C@H]2CCC[C@H]2C(N)=O)nc(N)n1, the “% Inhibition” value is reported as -11% and the Z score is reported as 1.41. COc1cccc(CNCc2c(C(=O)O)c(C)n(-c3ccccc3)c2C)c1 was tested, and the “% Inhibition” value was -5% and the Z score was 1.01. In the case of Cc1ccc(-c2cc(CN(Cc3ccc(F)cc3)C(=O)NC(C)C)no2)c(C)c1, the “% Inhibition” value is reported as 8% and the Z score is reported as -1.06. For CCO[C@H]1COC[C@@H]1NC(=O)Cc1c(C)n[nH]c1C, the “% Inhibition” value was -1% and the Z score was 0.23. For CCc1noc(CC)c1CNC(=O)NCc1ccon1, the “% Inhibition” value was 23% and the Z score was -2.6. In the case of CCCC1(C2CCN(Cc3ccccc3-c3ccco3)CC2)NC(=O)N(CCC2CCCN2C)C1=O (stereo unspecified), the “% Inhibition” value is reported as 10% and the Z score is reported as -1.29. With Cc1ccc(C(=O)NCC2CCCC23NC(=O)NC3=O)c2c1CCC2 (stereo unspecified) the “% Inhibition” value was 6% and the Z score was -0.99. CCOc1cccc(CN2C(=O)C3(CCOCC3)C[C@H]2c2nnnn2C(C)(C)C)c1 was tested, and the “% Inhibition” value was -17% and the Z score was 2.65. With O=C1OCC[C@H]2CN(c3ncc(Br)cc3F)CCN12 the “% Inhibition” value was 35% and the Z score was -3.95. With O=C(Cn1nnc2c1CCCC2)N[C@@H]1c2ccccc2CC[C@@H]1O the “% Inhibition” value was -3% and the Z score was 0.43.
